From the supplement of paper PMC6135742
Counter-ions that a name gives are not always drawn. ± gives the standard deviation of the averaged measurements. In all, about 2,600 compounds were measured (“total cell number (DAPI+ nuclei) relative to DMSO vehicle control”: median about -1.4, lowest 2% from about -23 on). Some of the results follow.

Tested on: jimpy (Plp1 jimpy) mouse iPSC-derived oligodendrocyte progenitor cells
Test: total cell number (DAPI+ nuclei) relative to DMSO vehicle control (SDs above negative control mean); higher = more surviving cells
Conditions: 10 µM; 3 days

Row | SMILES | total cell number
1 | c1ccc(-c2ccc(C(c3ccccc3)n3ccnc3)cc2)cc1 (stereo not given) [Bifonazole] | 17.8
2 | Oc1c(Cl)cc(Cl)c2cccnc12 [Chloroxine] | -4.01
3 | COc1ccccc1N1CCN(CCCNc2c(C)c(=O)n(C)c(=O)n2C)CC1 [Urapidil, 5-Methyl-] | -1.49
4 | O=C1CC[C@@H](C(=O)N2CSC[C@H]2C(=O)O)N1 [Pidotimod] | -0.632
5 | COc1ccc(Cl)cc1NC(=O)Nc1cc(C)nc2ccccc12 | -10.4
6 | CN(C)CCC(c1ccc(Br)cc1)c1ccccn1 (stereo not given) [Brompheniramine hydrogen maleate] | -1.36
7 | COc1cc2ncnc(Nc3cccc(Br)c3)c2cc1OC | -7.3
8 | COc1cc(Nc2c(C#N)cnc3cc(OCCCN4CCN(C)CC4)c(OC)cc23)c(Cl)cc1Cl [Bosutinib] | -10.5
9 | COc1cc(Nc2c(C#N)cnc3cc(OCCCN4CCN(C)CC4)c(OC)cc23)c(Cl)cc1Cl [Bosutinib (SKI-606)] | -26.4
10 | CC(=O)OC[C@H]1O[C@@H]([S-])[C@H](OC(C)=O)[C@@H](OC(C)=O)[C@@H]1OC(C)=O.CCP(CC)CC.[Au+] [Auranofin] | -9.05
11 | CCCCCCCCCC(=O)N[C@@H](Cc1c[nH]c2ccccc12)C(=O)N[C@H](CC(N)=O)C(=O)N[C@@H](CC(=O)O)C(=O)N[C@@H]1C(=O)NCC(=O)N[C@@H](CCCN)C(=O)N[C@@H](CC(=O)O)C(=O)N[C@H](C)C(=O)N[C@@H](CC(=O)O)C(=O)NCC(=O)N[C@H](CO)C(=O)N[C@@H]([C@H](C)CC(=O)O)C(=O)N[C@@H](CC(=O)c2ccccc2N)C(=O)O[C@@H]1C [Daptomycin] | 1.06
12 | CCC1(c2ccccc2)C(=O)NCNC1=O [Primidone] | -0.814 ± 0.99
13 | CCCCc1oc2ccc(NS(C)(=O)=O)cc2c1C(=O)c1ccc(OCCCN(CCCC)CCCC)cc1 [Dronedarone HCl] | -15.2
14 | Nc1ncnc2c1ncn2[C@@H]1O[C@H](CO)[C@@H](O)[C@@H]1O [Vidarabine] | -8.76
15 | NC[C@@H]1O[C@H](C23CC4CC(CC(C4)C2)C3)Cc2c1ccc(O)c2O | -10
16 | C[C@@](Cc1ccc(O)c(O)c1)(NN)C(=O)O [Carbidopa] | -3.87
17 | C=CC(=O)Nc1cccc(Oc2nc(Nc3ccc(N4CCN(C)CC4)cc3)ncc2Cl)c1 | -26.9
18 | CCOc1nc2cccc(C(=O)O)c2n1Cc1ccc(-c2ccccc2-c2nnn[nH]2)cc1 [Candesartan] | -1.19
19 | CSC(=N)N [S-Methylisothiourea hemisulfate] | -1.65
20 | CCS(=O)(=O)N1CC(CC#N)(n2cc(-c3ncnc4[nH]ccc34)cn2)C1 | -1.56
